{"source": "paper PMC12136788", "binders": {"B1": {"name": "chr11:95129132:95129233:+|CDS|ENSG00000149218|msi1|total|mutant (ssRNA)", "RNA": "GGGAGUUCUACAGUCCGACGAUCAAUCCUGAAGAACAUUGUCUAUUUCCUGUGGUGUGUUACCAAGCAGGUGAUUAAUGGCACCGAAAGUUGCCUUUACCGCCUGGGCUCAGCCACCAUCUCAUACUUCAUGGCCAUUGGGGACAACAGAGGAUUGAGCAUCA"}, "B2": {"name": "chr5:72207927:72208036:+|3pUTR|ENSG00000131711|msi1_unk|total|mutant (ssRNA)", "RNA": "GGGAGUUCUACAGUCCGACGAUCUUUUUUUUUUUUUUUUUUUGCUAUGGGAUUUAAUGGGAAAAAUAUGUAAAAACUGUCACCCGUCAGCUGGCUCUUUUUCCUAUGAAAUCUAUCAGUACCUUUCUCCAUCCGUUGUUCUCACAACAGAGGAUUGAGCAUCA"}, "B3": {"name": "chr12:64147824:64147925:+|3pUTR|ENSG00000196935|unk|FALSE|unique (ssRNA)", "RNA": "GGGAGUUCUACAGUCCGACGAUCCAUCUCUGUGGUGUCUUUGUUCCUUUCCUUUCAUUCAUCACUACUUUCUCCUUGACAGCUAGCUUGCAUUAAAUAAUGUGAAACUUUUACCUUUAAAAUAUUUUUUUAUCUCACUUUCAUCAACAGAGGAUUGAGCAUCA"}, "B4": {"name": "chrX:40074726:40074839:-|CDS|ENSG00000183337|unk|total|mutant (ssRNA)", "RNA": "GGGAGUUCUACAGUCCGACGAUCGCGCUGGGCUUGGACAGGCCUGCCAGCGACAAACAGAGCCCUCUCAACAUCAAUGGUGCCCGUUAUCUGCGGCUGCCCUGGGUCAAUCCUUACAUGGAGGGUGCCACGCCAGCCAUCUACCAACAGAGGAUUGAGCAUCA"}, "B5": {"name": "chrX:48915045:48915146:-|CDS|ENSG00000102096|unk|total|mutant (ssRNA)", "RNA": "GGGAGUUCUACAGUCCGACGAUCCCAGCACUGCCAUUCCCGUGGAGUUGUCCAUCGUGACAUCAAGGAUGAGAACAUCCUGACCGACCUACGCCGUGGCUGUGCCAAACUCAUUGAUUUUGGUUCUGGUGCCCUGCUUCAUGACAACAGAGGAUUGAGCAUCA"}, "B6": {"name": "chr2:218264180:218264222:-|3pUTR|ENSG00000127837|msi1_unk|total|mutant (ssRNA)", "RNA": "GGGAGUUCUACAGUCCGACGAUCUUGAGGUUCCCGUUCUUUCCCUUCCCAAGUCUCUGGGGGUGGAAAGGAGGAAGAGAUACCCGUUAAAGAUUUUAAAAAUGUAAAUAAAAUAUACUUCCCAGAGACAGAGUCUGUGUGGAUCAACAGAGGAUUGAGCAUCA"}, "B7": {"name": "chr1:156742365:156742464:-|3pUTR|ENSG00000143321|msi1_unk|FALSE|overlapping (ssRNA)", "RNA": "GGGAGUUCUACAGUCCGACGAUCAUUUCUGAGGUGCACUGGGAGGCUCCCCUUCUAUUUGGGGCUUGAUGACUUUCUUUUUGUAGCUGGGGCUUUGAUGUUCCUUCCAGUGUCAUUUCUCAUCCACAUACCCUGACCUGGCCCCAACAGAGGAUUGAGCAUCA"}, "B8": {"name": "chr3:121436121:121436275:-|CDS|ENSG00000051341|control|control|control (ssRNA)", "RNA": "GGGAGUUCUACAGUCCGACGAUCAGUCCAAGGAUCAGCAGCUGAUAUUGUCAAAAUAGCCACAGUUAACAUUCAGAAGCAAUUAGAGACCUUCCACUCAACCUUCAAAUCCCAUGGUCAUCGAGAGGGUAUGCUCCAAAGUGACAACAGAGGAUUGAGCAUCA"}, "B9": {"name": "chr17:2300308:2300409:-|CDS|ENSG00000070366|unk|FALSE|unique (ssRNA)", "RNA": "GGGAGUUCUACAGUCCGACGAUCGACCCAGAAAAUAAUCGGGGACAAGAAUCCUUUCCUAGGACUGCUGGACAAGAGGAUCGUAGUCUAAAAAUUAUCAAAAGAACAAAGAAACCCGACCUGCAGAUCUAUCAGCCUGGACGACAACAGAGGAUUGAGCAUCA"}, "B10": {"name": "chr12:89590234:89590335:-|3pUTR|ENSG00000070961|msi1|FALSE|bound_elsewhere (ssRNA)", "RNA": "GGGAGUUCUACAGUCCGACGAUCUUUGCCUACAAUUUACCUUGUUAAAUAUUGUAGAUAAAUUGCUAAUACUAAUAGCCAAAUAGAUAACACUAAUGCUUUGUUUAAAAAAACGAAAAAAACAAAACAAAACAAAAAAACAUGCAACAGAGGAUUGAGCAUCA"}, "B11": {"name": "chr3:17009782:17009883:+|CDS|ENSG00000154822|unk|total|mutant (ssRNA)", "RNA": "GGGAGUUCUACAGUCCGACGAUCAAUUCAAUGGUUGAGGGUUCAGAACUCAAAAAGGUUCGCUCCAACUCCCGAAUUUAUCACCGGUACUUUUUACUGGAUGCUGACAUGCAGAGCCUAAGGUGGGAGCCAUCUAAGAAGGAUCAACAGAGGAUUGAGCAUCA"}, "B12": {"name": "chr15:52122579:52122653:-|3pUTR|ENSG00000069966|msi1_unk|total|mutant (ssRNA)", "RNA": "GGGAGUUCUACAGUCCGACGAUCUCUUCACAUGUAAACCGAUAUUACUUCCCGAGGAGCUCCGAGUUUAUUGCAGUGCCGCUCCGGGGAGCAACCCAUGGCUCACAGGUCACUAAGCGUCUCCAAUAUGACUAUUAAAACUGUCAACAGAGGAUUGAGCAUCA"}, "B13": {"name": "chr8:80499649:80499757:+|CDS|ENSG00000205189|unk|total|mutant (ssRNA)", "RNA": "GGGAGUUCUACAGUCCGACGAUCUAAGACUUUAUAUUGCUUUUCAAACAAAGAAAGCCCUAACCAAAACAAUACUACCCACUCCGAUAUUGCUGCAGUUCAAGGUUUUUCAGUCAUCUUGGACUUCUUGUAUUCUGGUAACCUCAACAGAGGAUUGAGCAUCA"}, "B14": {"name": "ENSG00000107863:be:win_4601|CDS|ENSG00000107863|bound_else_gene|NA|bound_elsewhere_windowed (ssRNA)", "RNA": "GGGAGUUCUACAGUCCGACGAUCAGAAGUCCUCCCACCUUGAAGAGACAGGCUCUGACUCUGGCACUUUGCUCAGCACGUCUUCCCAGGCCUCCCUGGCAAGGUUUUCCAUGAAGAAAUCAACCAGUCCAGAAACGAAACAUACAACAGAGGAUUGAGCAUCA"}, "B15": {"name": "chr2:206311781:206311882:+|3pUTR|ENSG00000204186|unk|FALSE|unique (ssRNA)", "RNA": "GGGAGUUCUACAGUCCGACGAUCUAGUGUUUAGAGUCCUUUCAUUUUAAGAUUCAGAAACAGCCUUUGUCCAACAUUUUCUGUAGAAGAACUUCAUCUUAAUUUAUGUCACAAAAUAAUUUAGCACCGUAUAUAGAAUUUUGUCAACAGAGGAUUGAGCAUCA"}, "B16": {"name": "chr7:105566322:105567453:-|three_prime_utr|ENSG00000185055|control|control|control (ssRNA)", "RNA": "GGGAGUUCUACAGUCCGACGAUCAGUUUCAUUAAUUCAGAAUUUCAUCAUAUAACUUGAAAUCCAAUUGGCUUCCUCUUUCUUAGAAACAAAAACCAAAGAAACCUUUUUCUGAAAGACAUUAUUUUCCAGUAUUAGGCCAAUCAACAGAGGAUUGAGCAUCA"}, "B17": {"name": "chr10:11763304:11763405:+|CDS|ENSG00000134463|unk|total|mutant (ssRNA)", "RNA": "GGGAGUUCUACAGUCCGACGAUCGGGCUGCUCCGCAAGGUGGUGCCAGAGGCGGAGCUGCAGGAGGAGACCAUGCGGAUCGCCCGGAAGAUCGCAUCGCUGAGCCGUCCGGUGGUGUCCCUGGGCAAAGCCACCUUCUACAAGCAACAGAGGAUUGAGCAUCA"}, "B18": {"name": "chr17:82078764:82078865:-|3pUTR|ENSG00000169710|msi1_unk|FALSE|overlapping (ssRNA)", "RNA": "GGGAGUUCUACAGUCCGACGAUCCCGUGGGGUCUGCGCUUGGUCUUUCUGUGCUUGGAUUUGCAUAUUUAUUGCAUUGCUGGUAGAGACCCCCAGGCCUGUCCACCCUGCCAAGACUCCUCAGGCAGCGUGUGGGUCCCGCACCAACAGAGGAUUGAGCAUCA"}, "B19": {"name": "chr1:236581285:236581397:-|CDS|ENSG00000119285|unk|total|mutant (ssRNA)", "RNA": "GGGAGUUCUACAGUCCGACGAUCCAUCCCGAAGAUGUUUUUCAGUUAUUCAAGUUCUGUUCUGUUUUAUGGACCUAUGGUUCCCGCCUUUCAAAUCCACUAAACUGCAGUGUGAAAACAGUGCUGCAGACUCAAGCUCUUUAUCAACAGAGGAUUGAGCAUCA"}, "B20": {"name": "chr6:122432834:122432935:+|3pUTR|ENSG00000025156|msi1|total|mutant (ssRNA)", "RNA": "GGGAGUUCUACAGUCCGACGAUCAUAUACCGAAAGAUCGGGGGUGGGAUGGGAUGGAGUGAGCCCCAUCCAGUCCGUUGGACCCGUUUUAAAUAAAGGUUUUCCGGUUUGUGUUUUUUUGAACCAUACUGUUCCGUAAAAUAACAACAGAGGAUUGAGCAUCA"}, "B21": {"name": "chr2:39051162:39051270:-|CDS|ENSG00000115904|unk|total|mutant (ssRNA)", "RNA": "GGGAGUUCUACAGUCCGACGAUCAAAUAUAUUCCGUCGCACCGCCGAUAUACAUGAACUCCGUGUAAAGUUACUGGGCCAUACCGAAGAUACAGCCGAAAUGACAGAUGAAGGCAGUCCCCAUCCACCCGCCGGAAGCUGCUUCAACAGAGGAUUGAGCAUCA"}, "B22": {"name": "chr4:70820284:70820384:-|3pUTR|ENSG00000132463|msi1_unk|total|mutant (ssRNA)", "RNA": "GGGAGUUCUACAGUCCGACGAUCUGAACUGGUAUGGUUUGGCAGAACCGUUUUAAAUUUUGCUGUAUUUGAUUACUCCGAGACCGGAAUUUUUAAAAAUCAAAACAAAAAAUACCACAGCUCCGUGUAAAUGACAAUUUGGCGCAACAGAGGAUUGAGCAUCA"}}, "note": "The list shows a part of the results.", "data": [{"biological_target": "MSI1 full-length (mouse, UniProt Q61474 1-362)", "sequence (Q61474 whole entry)": "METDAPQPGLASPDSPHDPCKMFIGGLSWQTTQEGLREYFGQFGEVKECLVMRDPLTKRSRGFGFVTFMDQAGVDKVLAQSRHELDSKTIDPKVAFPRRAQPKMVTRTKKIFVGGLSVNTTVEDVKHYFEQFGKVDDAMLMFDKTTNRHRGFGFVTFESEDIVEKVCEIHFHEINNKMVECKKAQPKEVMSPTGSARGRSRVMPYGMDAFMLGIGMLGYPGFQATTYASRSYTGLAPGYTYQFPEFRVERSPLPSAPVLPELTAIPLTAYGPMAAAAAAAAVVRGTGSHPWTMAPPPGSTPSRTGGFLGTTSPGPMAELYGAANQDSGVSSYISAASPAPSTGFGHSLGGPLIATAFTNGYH", "experiment": "nsRBNS (natural sequence RNA bind-n-seq); RBNS binding buffer (assumed for nsRBNS): 25 mM Tris pH 7.5, 150 mM KCl, 3 mM MgCl2, 0.01% Triton X-100, 500 ug/ml BSA, 20 U/ml SUPERase-In, 4 C; UNK is unkempt and MSI1 is Musashi-1; names of the RNAs are library labels; protein concentration not given here; high values mean tight binding", "units": {"binding signal": "enrichment R"}, "values": [{"binder": "B1", "binding signal": 0.277}, {"binder": "B2", "binding signal": 2.25}, {"binder": "B3", "binding signal": 7.22}, {"binder": "B4", "binding signal": 0.345}, {"binder": "B5", "binding signal": 0.357}, {"binder": "B6", "binding signal": 0.654}, {"binder": "B7", "binding signal": 0.422}, {"binder": "B8", "binding signal": 1.34}, {"binder": "B9", "binding signal": 1}, {"binder": "B10", "binding signal": 1.67}, {"binder": "B11", "binding signal": 0.37}, {"binder": "B12", "binding signal": 0.405}, {"binder": "B13", "binding signal": 0.402}, {"binder": "B14", "binding signal": 0.414}, {"binder": "B15", "binding signal": 16.7}, {"binder": "B16", "binding signal": 2.42}, {"binder": "B17", "binding signal": 0.405}, {"binder": "B18", "binding signal": 0.397}, {"binder": "B19", "binding signal": 0.346}, {"binder": "B20", "binding signal": 0.34}, {"binder": "B21", "binding signal": 0.566}, {"binder": "B22", "binding signal": 0.263}]}]}
